# Among all 410,000 compounds or so, about 6,400 (1.6%) were called active. This list was built around the results that the source calls inconclusive (neither active nor inactive); the mix of calls is not that of the screen. Calls come from the whole dose curve; as a rule, active = well fitted inhibition curve with a large enough effect; inconclusive = small, poorly fitted or top-dose-only effect; inactive = no such curve, though single readings can be large or run the other way. No potency is given beside an inconclusive call; the fits are too rough.
# Target: Glucagon-like peptide 1 receptor (Homo sapiens) (UniProt P43220)
# Chain of UniProt P43220 (P43220 whole entry, looked up): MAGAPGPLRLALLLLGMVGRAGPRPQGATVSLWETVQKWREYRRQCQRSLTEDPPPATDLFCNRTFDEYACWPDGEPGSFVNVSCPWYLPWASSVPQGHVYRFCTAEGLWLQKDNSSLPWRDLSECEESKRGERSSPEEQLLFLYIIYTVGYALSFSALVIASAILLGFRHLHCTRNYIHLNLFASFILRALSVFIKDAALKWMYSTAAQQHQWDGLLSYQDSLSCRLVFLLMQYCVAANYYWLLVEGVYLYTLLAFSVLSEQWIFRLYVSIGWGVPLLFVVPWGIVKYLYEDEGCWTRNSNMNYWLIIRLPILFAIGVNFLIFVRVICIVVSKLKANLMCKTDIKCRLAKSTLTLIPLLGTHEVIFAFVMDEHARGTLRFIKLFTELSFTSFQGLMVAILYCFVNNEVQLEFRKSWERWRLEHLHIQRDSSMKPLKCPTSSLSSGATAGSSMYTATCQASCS
# Assay: qHTS of GLP-1 Receptor Inverse Agonists (Inhibition Mode); note: nearly all actives have a fitted effect of over 55% in size
# Details: HEK293 GLP-1R CRE-luciferase, luminescence, 24 h, GLP-1R form is constitutively active; series mostly up to 38.3 µM
# Summary of the method: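 Luminescence readout: a drop in cAMP-driven luciferase signal flags inverse agonism at a constitutively active GLP-1R stably expressed in HEK293. Compound exposure lasted 24 hr at 37 deg C, 5% CO2.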
# Potency is the fitted concentration of half-maximal effect; tags give direction and shape of the fitted curve.
row,SMILES,Potency
1,O=C(NCCN1CCC(n2c(=O)[nH]c3ccccc32)CC1)c1cccs1,inactive
2,CCSC1=C(C#N)C(=O)n2c1cc1c2CCCC1,"inconclusive [inhibitor, single point]"
3,CCc1ccc(NC(=O)CC2C(=O)N(c3cccc(OC)c3)C(=O)N2C2CCCC2)cc1 (centres undefined),"inconclusive [inhibitor, single point]"
4,CC1CCCC(C)N1C(=O)COC(=O)c1ccc(Br)c(S(=O)(=O)N2CCOCC2)c1 (centres undefined),"inconclusive [inhibitor, single point]"
5,COc1ccc(-c2nn(-c3ccccc3C)cc2CNC(C)c2cn(C)nc2C)cc1F (centres undefined),"inconclusive [inhibitor, single point]"
6,CCOc1cc(Br)c(CN2C(=O)NC3(CCCCCC3)C2=O)cc1OCC,"inconclusive [inhibitor, single point]"
7,C=CCn1c(COc2ccccc2)nnc1SCC(=O)N/N=C/c1ccc(C)cc1,"inconclusive [inhibitor, partial curve, poor fit]"
8,COc1ccc(CNCC(O)(c2ccccc2)c2ccc(F)cc2)cc1OC (centres undefined),"inconclusive [inhibitor, partial curve, poor fit]"
9,Cc1ccc(CNC(=O)CN2C(=O)COc3ccc(S(=O)(=O)Nc4ccccc4)cc32)cc1,inactive
10,CC(C)Cc1nn2c(=O)cc(COc3ccc(NC(=O)c4ccco4)cc3)nc2s1,"inconclusive [inhibitor, partial curve, poor fit]"
11,CC(C)(C)OC(=O)N1CCC(c2nnc(SCc3cccc(Cl)c3)o2)CC1,"inconclusive [inhibitor, single point]"
12,O=C(NCCN1CCOCC1)C1CCN(S(=O)(=O)c2ccccc2)CC1,inactive
13,COc1ccc(-c2nc(SCC(=O)Nc3ccc4c(c3)OCCO4)c(-c3ccc(C)cc3)[nH]2)cc1OC,"inconclusive [inhibitor, partial curve]"
14,CCCCOCCCNC(=O)/C=C/c1ccccc1Cl,"inconclusive [inhibitor, single point]"
15,CCOc1ccc2nc(N/C(N)=N/C(=S)Nc3ccc(C)c(C)c3)nc(C)c2c1,inactive
16,CC(=O)NC(C)(c1ccccc1)c1nc(-c2cccc(C(F)(F)F)c2)cs1 (centres undefined),"inconclusive [inhibitor, single point]"
17,Cc1nn(CC(=O)c2ccccc2Cl)c(C)c1[N+](=O)[O-],"inconclusive [inhibitor, partial curve, poor fit]"
18,Cc1ccc2nc(-c3ccc(NC(=S)NCC(C)(C)CN(C)C)cc3)sc2c1,"inconclusive [inhibitor, partial curve]"
19,Cc1ccc(F)c(NC(=O)/C(C#N)=C(\O)c2ccc(C(C)(C)C)cc2)c1,"inconclusive [inhibitor, partial curve, poor fit]"
20,Cc1ccc(O)c(-c2[nH]ncc2C(=O)c2ccc(Br)cc2)c1,"inconclusive [inhibitor, single point]"
21,Cc1ccccc1Nc1c(-c2ccc(N3CCOCC3)cc2)nc2ccccn12,"inconclusive [inhibitor, single point]"
22,CC(N=C(NC#N)Nc1ccncc1)C(C)(C)C (centres undefined),"inconclusive [inhibitor, single point]"

row,SMILES,Potency
1,COC(=O)C1=C(C)NC(=O)/C1=C\c1cc(C)n(-c2cc(C)cc(C)c2)c1C,"inconclusive [inhibitor, single point]"
2,O=C(O)c1oc2ccccc2c1CSc1ccc(Cl)cc1,"inconclusive [inhibitor, single point]"
3,CCOC(=O)N1CCN(C(=O)/C=C/c2ccc(C(C)(C)C)cc2)CC1,"inconclusive [inhibitor, partial curve, poor fit]"
4,N=c1n(Cc2ccccc2)c2ccccc2n1CC(O)COc1ccc(Cl)cc1Cl (centres undefined),"inconclusive [inhibitor, partial curve, poor fit]"
5,CCOc1ccccc1OCCCC(=O)N1CCN(S(=O)(=O)c2ccc(Cl)cc2)CC1,inactive
6,COc1ccccc1CNC(=O)CCC1N=C2c3ccccc3N=C(SCc3ccc(C)cc3C)N2C1=O (centres undefined),"inconclusive [inhibitor, partial curve, poor fit]"
7,Clc1ccc(-c2nc(-c3ccccn3)no2)cc1Cl,inactive
8,COc1ccc2c(C)c(C(=O)O)oc2c1,inactive
9,Cc1ccc(C(=O)O)cc1NS(=O)(=O)c1ccc2ccccc2c1,inactive
10,Cn1ccnc1SCC(=O)N(C1CCCCC1)C1CCCCC1,"inconclusive [inhibitor, single point]"
11,Fc1cccc(-n2ncc3c2ncn2nc(Cc4ccccc4)nc32)c1,inactive
12,C=CCOc1ccc(/C=C2\SC(=S)N(NS(=O)(=O)c3ccccc3)C2=O)cc1,"inconclusive [inhibitor, single point]"
13,CC(C)(C)C1CCc2nc(NC(=O)Cc3cn4ccsc4n3)sc2C1 (centres undefined),"inconclusive [inhibitor, single point]"
14,CSCCCN1CCC(n2nccc2NC(=O)CCCc2ccccc2)CC1,inactive
15,COc1ccc(NC(=O)CN(c2cc(C)cc(C)c2)S(=O)(=O)c2c(C)noc2C)cc1Cl,"inconclusive [inhibitor, single point]"
16,Cc1cccc(C)c1-n1nnnc1C(c1ccnc2ccccc12)N1CCN(C/C=C/c2ccccc2)CC1 (centres undefined),"inconclusive [inhibitor, single point]"
17,O=[N+]([O-])c1cccc(/C=C/c2nc3ccc([N+](=O)[O-])cc3[nH]2)c1,"inconclusive [inhibitor, single point]"
18,C/C=C/c1ccc(OCCCCOc2c(OC)cccc2OC)c(OC)c1,"inconclusive [inhibitor, partial curve, poor fit]"
19,Cc1ccc2nc3sc(C(=O)NCCCN(C)c4ccccc4)cc3cc2c1,"inconclusive [inhibitor, single point]"
20,S=C(Nc1ccc(Cl)cc1)N1CCN(Cc2ccccc2)CC1,"inconclusive [inhibitor, partial curve, poor fit]"
21,O=C1C=C(NCc2ccc(Cl)c(Cl)c2)CC1,"inconclusive [inhibitor, partial curve]"
22,COc1cccc(C(NC(C)=O)c2nc(-c3csc4ccccc34)cs2)c1 (centres undefined),"inconclusive [inhibitor, single point]"

row,SMILES,Potency
1,COc1ccc(CCN2C(=O)c3[nH]nc(-c4ccccc4O)c3C2c2ccc(OC)cc2)cc1 (centres undefined),"inconclusive [inhibitor, partial curve, poor fit]"
2,Cc1nn(CCc2n[nH]c(=S)n2C2CCCCC2)c(C)c1Br,"inconclusive [inhibitor, single point]"
3,O=S(=O)(c1ccc(Cl)cc1)c1nc(-c2ccco2)oc1SCc1ccc(F)cc1,"inconclusive [inhibitor, single point]"
4,COc1ccc(-c2oc(NC(=O)c3ccc(C)cc3)c(C#N)c2-c2ccc(OC)cc2)cc1,"inconclusive [inhibitor, partial curve, poor fit]"
5,CCOc1ccc(CCNC(=O)c2ccc3c(c2)c(C)c(C)n3Cc2ccccc2)cc1OCC,"inconclusive [inhibitor, partial curve, poor fit]"
6,O=C(Nc1ccc(Cl)cc1)c1nc[nH]c1C(=O)Nc1ccccc1F,inactive
7,Cc1n[nH]c(C)c1CCCCOc1ccccc1F,inactive
8,CC(C)c1ccccc1NC(=S)NCc1ccccc1F,"inconclusive [inhibitor, partial curve, poor fit]"
9,CN(C)CCNc1ccc(CO)c2sc3ccc(O)cc3c(=O)c12,"inconclusive [inhibitor, single point]"
10,OC(c1ccc(OCc2ccccc2)cc1)c1nnc(-c2ccccc2)o1 (centres undefined),inactive
11,Cc1ccc(C)c(C(O)c2ncc(-c3ccccc3)[nH]2)c1 (centres undefined),"inconclusive [inhibitor, single point]"
12,CC1CN(C(=O)c2ccc(-c3cccc(C(F)(F)F)c3)o2)CC(C)O1 (centres undefined),"inconclusive [inhibitor, single point]"
13,COc1ccccc1CNC(=O)Cc1csc(NC(=O)Nc2ccccc2OC)n1,"inconclusive [inhibitor, single point]"
14,Cc1c(C)n(C(=O)CN2CCN(c3ccccc3)CC2)c2ccccc12,"inconclusive [inhibitor, partial curve, poor fit]"
15,O=C(NC1=NCCS1)c1cc(-c2cccc(Br)c2)nc2ccccc12,"inconclusive [inhibitor, single point]"
16,CCCCn1c(-c2ccc(Br)cc2F)nc2c1c(=O)[nH]c(=O)n2CC(C)C,"inconclusive [inhibitor, full curve, poor fit]"
17,O=C1Nc2cc(Cl)ccc2C1(N1CCNCC1)C(F)(F)F (centres undefined),"inconclusive [inhibitor, single point]"
18,COc1ccc(C)cc1NC(=O)C(NCC1CCCO1)c1ccccc1 (centres undefined),"inconclusive [inhibitor, partial curve, poor fit]"
19,c1ccc(CCNc2ncnc3ccccc23)cc1,"inconclusive [inhibitor, partial curve, poor fit]"
20,O=C(COc1c(F)c(F)c(C(F)(F)F)c(F)c1F)Nc1ccc(N2CCOCC2)c(Cl)c1,"inconclusive [inhibitor, partial curve, poor fit]"
